Experimental findings from the BET-seq Pho4 binding data (Le et al. 2018) are described below.

This is one part of the list. Values were computed here from the reads of four pooled replicates and scatter widely.

This experiment deals with T1, Pho4 (S. cerevisiae) (UniProt P07270).
T1 sequence: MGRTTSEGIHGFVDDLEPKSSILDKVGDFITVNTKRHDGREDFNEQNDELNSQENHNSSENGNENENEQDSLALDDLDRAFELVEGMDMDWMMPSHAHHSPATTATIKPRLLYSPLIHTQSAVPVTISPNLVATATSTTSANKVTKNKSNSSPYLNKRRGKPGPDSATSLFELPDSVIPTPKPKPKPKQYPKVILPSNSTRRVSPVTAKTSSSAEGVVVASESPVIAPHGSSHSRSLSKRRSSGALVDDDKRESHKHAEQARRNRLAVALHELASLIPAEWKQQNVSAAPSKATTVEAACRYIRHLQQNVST
The experiment can be described thus: relative binding free energy (BET-seq); higher = weaker binding. Particulars: reference: library average.
ATTGGCACGTGTCCGG: the “relative binding free energy” value was -0.11 kcal/mol.
As for ATATGCACGTGTCTTA, the “relative binding free energy” value was -0.04 kcal/mol.
As for ATTAACACGTGGGGAC, the figure is 0.01 kcal/mol; as for TGTCTCACGTGTAGTC, 0.23 kcal/mol.
As to GAAATCACGTGTTAGT, the “relative binding free energy” value came out at 0.21 kcal/mol.
As for ACTTTCACGTGGAGGT, the figure is 0.17 kcal/mol.
On to GGTTGCACGTGCGGCG, for which the “relative binding free energy” value was found to be 0.09 kcal/mol.
The result for GCGTGCACGTGAGGAT reads 0.33 kcal/mol.
With CGGGGCACGTGTCTAG, the “relative binding free energy” value is -0.16 kcal/mol.
With TATTTCACGTGCGTCT, the “relative binding free energy” value turned out to be 0.25 kcal/mol.
For the sequence CAAAGCACGTGTTTGT, the “relative binding free energy” value was -0.05 kcal/mol.
In the case of TTTAGCACGTGGGGTC, the “relative binding free energy” value was -0.16 kcal/mol.
As to TGTATCACGTGCGGTA, the “relative binding free energy” value was 0.05 kcal/mol.
As for GTAGTCACGTGTATGC, the “relative binding free energy” value was 0.1 kcal/mol.
On to GCGAGCACGTGTAGGT, for which the “relative binding free energy” value was -0.02 kcal/mol.
On to TTTGACACGTGTCTTT, for which the “relative binding free energy” value worked out at 0.01 kcal/mol.
For GGTCTCACGTGTTCTT, the “relative binding free energy” value stood at 0.31 kcal/mol.
Turning to ATGAGCACGTGATAGT, the “relative binding free energy” value was determined as 0.1 kcal/mol.
In the case of GTAAACACGTGATTGT, the “relative binding free energy” value is 0.09 kcal/mol.
As for TCAGACACGTGGTGGA, the “relative binding free energy” value stood at 0.09 kcal/mol.
As for TTGGCCACGTGGGGCT, the figure is -0.24 kcal/mol.
Turning to GGCCGCACGTGGGCAG, the “relative binding free energy” value was -0.13 kcal/mol.
The result for AGGGGCACGTGGTAAC reads -0.16 kcal/mol; that for GAAGGCACGTGTTTGA, -0.16 kcal/mol; that for GCAGGCACGTGTTAGG, -0.03 kcal/mol.
The result for ATTGCCACGTGGGGTT reads -0.19 kcal/mol.
Regarding GGTGTCACGTGTGTGG, the “relative binding free energy” value was found to be 0.17 kcal/mol.
As for TTAATCACGTGCGTCA, the “relative binding free energy” value was 0.22 kcal/mol.
For GTTTTCACGTGTTATC, the “relative binding free energy” value was 0.23 kcal/mol.
On to TAGGACACGTGTTGGT, for which the “relative binding free energy” value amounted to 0 kcal/mol.
Take TAGTACACGTGAGGGT: the “relative binding free energy” value worked out at 0.24 kcal/mol.
Turning to TGGCGCACGTGAAAGT, the “relative binding free energy” value was found to be 0.1 kcal/mol.
For TTGTTCACGTGGAAGC, the “relative binding free energy” value was found to be 0.31 kcal/mol.
As for ATATGCACGTGGTCGC, the figure is -0.02 kcal/mol; as for AAGATCACGTGTTGGT, 0.05 kcal/mol.
Consider ATCTTCACGTGGATGG, for which the “relative binding free energy” value stood at 0.4 kcal/mol.
Take TGATGCACGTGTACTG: the “relative binding free energy” value was -0.01 kcal/mol.
Take GGGTACACGTGGGGAG: the “relative binding free energy” value amounted to 0.03 kcal/mol.
On to TGGTTCACGTGCGTCT, for which the “relative binding free energy” value came out at 0.23 kcal/mol.
As for TGGTTCACGTGAGATC, the figure is 0.4 kcal/mol; as for TTGATCACGTGGAGTG, 0.09 kcal/mol; as for TGTGGCACGTGGGGTT, -0.14 kcal/mol.
TTACACACGTGCTGGG: the “relative binding free energy” value is -0.02 kcal/mol.
For AGGGCCACGTGGTGTT, the “relative binding free energy” value is -0.19 kcal/mol.
Take TGTTACACGTGCGGAA: the “relative binding free energy” value is 0.19 kcal/mol.
In the case of CGGTTCACGTGTATTA, the “relative binding free energy” value is 0.38 kcal/mol.
In the case of ATCCGCACGTGAGGGG, the “relative binding free energy” value turned out to be 0.21 kcal/mol.
In the case of AAGTTCACGTGCGTGG, the “relative binding free energy” value came to 0.1 kcal/mol.
Take GGGGACACGTGACGTG: the “relative binding free energy” value came out at 0.19 kcal/mol.
For the sequence GTTTTCACGTGGTCTC, the “relative binding free energy” value is 0.32 kcal/mol.
In the case of AAGCACACGTGGTTAG, the “relative binding free energy” value was determined as 0.22 kcal/mol.
For the sequence TTGCTCACGTGTGTTC, the “relative binding free energy” value came to 0.34 kcal/mol.
On to TTGGCCACGTGTGTGT, for which the “relative binding free energy” value was -0.02 kcal/mol.
Take TTAGGCACGTGGCTAT: the “relative binding free energy” value is -0.31 kcal/mol.
As for TTCTGCACGTGGAGTG, the figure is 0.02 kcal/mol; as for TGTTACACGTGGCAGA, 0.18 kcal/mol; as for AATGTCACGTGCGGTT, -0.03 kcal/mol.
For the sequence GCGGGCACGTGCTTGT, the “relative binding free energy” value is -0.18 kcal/mol.
Regarding ACAGTCACGTGGGGAG, the “relative binding free energy” value was -0.03 kcal/mol.
Turning to TCAGGCACGTGATTGG, the “relative binding free energy” value is 0.02 kcal/mol.
Consider GCTTTCACGTGGAAGT, for which the “relative binding free energy” value came out at 0.41 kcal/mol.
On to TTTTGCACGTGCATGA, for which the “relative binding free energy” value is -0.04 kcal/mol.
ATGAGCACGTGTAGGC: the “relative binding free energy” value is -0.06 kcal/mol.
CGTTACACGTGTGGGT: the “relative binding free energy” value stood at 0.14 kcal/mol.
In the case of CCAGACACGTGGTGGG, the “relative binding free energy” value turned out to be 0.05 kcal/mol.
For the sequence ATGTTCACGTGATATC, the “relative binding free energy” value turned out to be 0.28 kcal/mol.
As to TACGGCACGTGGTATT, the “relative binding free energy” value is -0.15 kcal/mol.
The result for GCATGCACGTGGGGTA reads -0.11 kcal/mol.
On to ATTTGCACGTGGTTCA, for which the “relative binding free energy” value was -0.11 kcal/mol.
As for GTGCTCACGTGGGGAA, the “relative binding free energy” value was -0.04 kcal/mol.
As for TTGGCCACGTGGTGTC, the figure is -0.05 kcal/mol; as for GTTAGCACGTGCTGTG, -0.05 kcal/mol.
With TTTAACACGTGTCTGG, the “relative binding free energy” value is 0.02 kcal/mol.
The result for TTGAGCACGTGGGCAT reads -0.27 kcal/mol.
In the case of ATCTCCACGTGGTGTT, the “relative binding free energy” value was found to be 0.06 kcal/mol.
With GGCTTCACGTGTATTT, the “relative binding free energy” value was 0.34 kcal/mol.
The result for GATGGCACGTGGTGAG reads -0.01 kcal/mol; that for TGGCACACGTGGGGTA, -0.17 kcal/mol; that for TGGTTCACGTGGATTG, 0.33 kcal/mol.
As for TGGCGCACGTGATTGT, the figure is 0.02 kcal/mol; as for TGGGTCACGTGCTTAG, -0.02 kcal/mol; as for GGGGACACGTGGTGTA, -0.1 kcal/mol.
Regarding GCGTTCACGTGTAGGA, the “relative binding free energy” value was determined as 0.3 kcal/mol.
As for GAAGTCACGTGGTGTG, the figure is 0.04 kcal/mol; as for TTATACACGTGGTCGT, -0.05 kcal/mol.
With ACGTACACGTGTGGTG, the “relative binding free energy” value is -0.02 kcal/mol.
As for CGTAACACGTGGGTTA, the figure is -0.16 kcal/mol; as for CTGGACACGTGAAGTG, 0.41 kcal/mol.
For ATAATCACGTGTTGCT, the “relative binding free energy” value was 0.05 kcal/mol.
In the case of GAGTACACGTGAATTG, the “relative binding free energy” value was found to be 0.34 kcal/mol.
As to CTTTGCACGTGAGGTC, the “relative binding free energy” value is 0.24 kcal/mol.
With TGTAGCACGTGCTTGT, the “relative binding free energy” value was -0.11 kcal/mol.
As to GGCGTCACGTGGCGTT, the “relative binding free energy” value was 0 kcal/mol.
The result for TTGACCACGTGGAGTT reads -0.04 kcal/mol; that for ATTGACACGTGTCGGG, 0.1 kcal/mol.
Consider GTGATCACGTGGGGGG, for which the “relative binding free energy” value was determined as 0.01 kcal/mol.
As for AAAGGCACGTGGGGCA, the figure is -0.05 kcal/mol; as for GGACGCACGTGGGCTG, -0.29 kcal/mol.
As for TTGCTCACGTGGTAGG, the figure is 0.32 kcal/mol; as for TGCTGCACGTGAGGGT, 0.28 kcal/mol; as for GATGGCACGTGCGCGG, -0.13 kcal/mol.
As for TGGATCACGTGGAGGA, the figure is -0.01 kcal/mol; as for GTGAACACGTGTGTTA, 0.07 kcal/mol; as for TATGTCACGTGTCAGA, 0.31 kcal/mol.
TAATTCACGTGCTAGT: the “relative binding free energy” value came to 0.28 kcal/mol.
As to TGTCTCACGTGAATTT, the “relative binding free energy” value turned out to be 0.4 kcal/mol.
In the case of AATAACACGTGTTAGT, the “relative binding free energy” value was -0.09 kcal/mol.
As to CGGAGCACGTGGTGTC, the “relative binding free energy” value is -0.14 kcal/mol.
As to ATGAGCACGTGGGAAA, the “relative binding free energy” value was -0.06 kcal/mol.
TAATGCACGTGATTGG: the “relative binding free energy” value came to 0.11 kcal/mol.
The result for TTATGCACGTGCTGGG reads 0 kcal/mol; that for ACTGTCACGTGAGGGT, 0.23 kcal/mol.
TTTTCCACGTGGGGAA: the “relative binding free energy” value is -0.01 kcal/mol.
With GGGGTCACGTGGTCAC, the “relative binding free energy” value is 0.07 kcal/mol.
Regarding TAGGCCACGTGTGAGT, the “relative binding free energy” value is -0.21 kcal/mol.
As for AGACTCACGTGTTAGT, the figure is 0.24 kcal/mol.
With TAGGTCACGTGGAAAT, the “relative binding free energy” value stood at 0.04 kcal/mol.
As for CGCTGCACGTGGGAGG, the figure is -0.11 kcal/mol; as for TTTACCACGTGTATAT, 0.04 kcal/mol.
As for TTTGACACGTGAGAAG, the figure is 0.15 kcal/mol.
The result for CGTTGCACGTGTATTG reads 0.02 kcal/mol; that for TAGTACACGTGGTTAG, -0.08 kcal/mol; that for GTATACACGTGAAGGT, 0.34 kcal/mol.
For TAGTTCACGTGTTGCA, the “relative binding free energy” value was found to be 0.34 kcal/mol.
For TTTAGCACGTGGGACA, the “relative binding free energy” value is -0.21 kcal/mol.
With TCAGGCACGTGAGATT, the “relative binding free energy” value is 0.27 kcal/mol.
Regarding TATGTCACGTGTAAAG, the “relative binding free energy” value came to 0.21 kcal/mol.
For TACGGCACGTGCAGGG, the “relative binding free energy” value is -0.12 kcal/mol.
GCATGCACGTGGGGAG: the “relative binding free energy” value was -0.23 kcal/mol.
Take AAGTGCACGTGTAGGT: the “relative binding free energy” value is -0.1 kcal/mol.
Regarding GCGGTCACGTGGAGGC, the “relative binding free energy” value worked out at 0.01 kcal/mol.
For CTGGACACGTGGTTGA, the “relative binding free energy” value was 0.05 kcal/mol.
The result for TGGGCCACGTGTGTGG reads -0.05 kcal/mol; that for CGTTGCACGTGTAGAT, 0.17 kcal/mol; that for ATTGGCACGTGTTCAG, -0.17 kcal/mol.
TATGACACGTGGTCAT: the “relative binding free energy” value was -0.13 kcal/mol.
Regarding GGGTACACGTGAGTGG, the “relative binding free energy” value was found to be 0.3 kcal/mol.
The result for GTCGGCACGTGCTAGG reads -0.03 kcal/mol.
GGGCTCACGTGCGGGC: the “relative binding free energy” value was found to be 0.25 kcal/mol.
As for GTTAACACGTGAGAGT, the “relative binding free energy” value came to 0.16 kcal/mol.
For GGCTTCACGTGAAAGT, the “relative binding free energy” value stood at 0.4 kcal/mol.
In the case of ATGGACACGTGTAGTG, the “relative binding free energy” value is -0.11 kcal/mol.
For the sequence TGCAACACGTGATGGC, the “relative binding free energy” value was found to be 0.3 kcal/mol.
AGGGTCACGTGCAATG: the “relative binding free energy” value was 0.09 kcal/mol.
For the sequence ATTGCCACGTGGTATT, the “relative binding free energy” value is 0.01 kcal/mol.
As for ACTGGCACGTGGGTGT, the “relative binding free energy” value is -0.2 kcal/mol.
